Here are results for 26 compounds from PubChem BioAssay AID1159583 (ICCB-Longwood Screening Facility, Harvard Medical School, 2016).

Some of the results follow. These are further read-outs of the screen, such as a control signal, another cell line or another target. No call is given for them. Most of these compounds were active or inconclusive in the main read-out, so they are no random draw.

A short description of this experiment: hypoxia reporter signal reduction in M. tuberculosis – fluorescence, absorbance growth readout, primary screen (AID 1159583). The following applies: M. tuberculosis hypoxia-regulated fluorescent reporter, measured here: M. tuberculosis growth (absorbance), stronger effect = higher value, concentration not given here.
For the compound `Cc1cc(N=Nc2ccccc2C(=O)O)c(C)c(C)c1O`, the growth inhibition worked out at 9.87%.

Compound `CCOC(=O)c1c(NC(=O)CN2C(=O)N(C)C3(CCCCC3)C2=O)sc(C(=O)N(C)C)c1C` displayed a growth inhibition of 59.8%.

`C=CCOc1ccc(/C=C2\C(=N)N3N=C(S(=O)(=O)CC)SC3=NC2=O)cc1OC` registered a growth inhibition of 29%.

`O=C(OCC#CCSc1nnc(-c2cccc3ccccc23)o1)c1cc2ccccc2o1` came in with a growth inhibition of 29.6%.

As to `CN(C)S(=O)(=O)c1ccc(C(=O)OCC(=O)NC(=O)NC2CCCC2)cc1`, the growth inhibition was 62.6%.

`Cc1cc(NN=Cc2ccccc2O)c2ccccc2n1`: the growth inhibition was determined as 38.3%.

`Cc1ccc(Cn2ccc(=O)c(OCc3c(Cl)cccc3Cl)c2C)cc1`: the growth inhibition was determined as 34.8%.

`O=[N+]([O-])c1nn(-c2cccc(Cl)c2)n(O)c1=NCc1cccnc1` yielded a growth inhibition of 21.3%.

`N#Cc1c2ccccc2nc2ccccc12` showed a growth inhibition of 39.6%.

The compound `Cc1ccccc1OCCC(=O)NNC(=O)c1ccccc1F` gave a growth inhibition of 69.6%.

Take `Cc1cc(O)c(C(C)C)cc1N=Nc1ccccc1C(=O)O`: the growth inhibition turned out to be 6.86%.

In the case of `CCN(CC)c1ccc(/C=C2\C(=O)NC(=S)N(C)C2=O)o1`, the growth inhibition stood at 13%.

`CC(=O)c1cccc(NC(=O)NC2CCCCCCC2)c1` had a growth inhibition of 52.5%.

In the case of `O=C(COC(=O)C1COc2ccccc2O1)Nc1cccc(F)c1` (stereo unspecified), the growth inhibition was 61.2%.

Regarding `CN(C)CCCN1C(=O)c2cccc3c(Br)ccc(c23)C1=O`, the growth inhibition was 5.04%.

In turn, `Cc1nnc(SCC(=O)NNC(=O)COc2ccc(Br)cc2)n1C` registered a growth inhibition of 65.4%.

For the compound `Cc1c(N2C(=O)/C(=C/c3ccc(N(C)C)cc3)N(C)C2=S)c(=O)n(-c2ccccc2)n1C`, the growth inhibition came to 7.05%.

`CCC(=Nc1ccccc1O)C1=C(O)CC(c2ccccc2)CC1=O` (stereo unspecified): the growth inhibition was 46%.

Take `CC1CCC2C(C)C(=O)OC3OC4(C)CCC1C32OO4` (stereo unspecified): the growth inhibition came to 5.61%.

`O=C(COC(=O)C1CC2CCCC(C1)C2=O)Nc1ccc(F)c(Cl)c1` (stereo unspecified) had a growth inhibition of 51.8%.

In turn, `COc1cc(/C=C2\SC(N)=NC2=O)ccc1OCC(=O)Nc1ccccc1C` showed a growth inhibition of 30.6%.

Compound `[O-][n+]1c2ccccc2c2n1CCN1CCOC21c1ccc(Cl)cc1` (stereo unspecified) came in with a growth inhibition of 38.7%.

`Cc1nc(SCc2ccccc2F)c2oc3ccccc3c2n1`: the growth inhibition worked out at 14.9%.

As to `O=C(OCC(=O)c1ccc(Cl)s1)c1cncc(Br)c1`, the growth inhibition was determined as 59.3%.

As to `COc1ccc(CCNC(=O)c2cc3c(=O)n4ccccc4nc3n(Cc3ccco3)c2=N)cc1OC`, the growth inhibition amounted to 16%.

In turn, `C=CCNc1nc(C(=O)OCC(=O)NCc2cccc(Cl)c2)cs1` yielded a growth inhibition of 76.7%.
